{"source": "PubChem BioAssay AID504832", "about": "(National Center for Advancing Translational Sciences (NCATS), 2011)", "note": "Out of some 310,000 compounds screened, about 18,000 (5.8%) were called active. The inconclusive results got no clear call from the source; some entries with a clear call stand among them for comparison. Calls come from the whole dose curve; as a rule, active = well fitted inhibition curve with a large enough effect; inconclusive = small, poorly fitted or top-dose-only effect, or another doubt; inactive = no such curve, though single readings can be large or run the other way. No potency is given beside an inconclusive call; the fits are too rough. % is set by controls: 0 for no effect and ±100 for the full control effect; potency is the fitted concentration of half-maximal effect; tags give direction and shape of the fitted curve.", "data": [{"test": "Primary qHTS for delayed death inhibitors of the malarial parasite plastid, 48 hour incubation", "settings": "P. falciparum luciferase growth in erythrocytes; series mostly up to 28.7 µM; activity change, negative = inhibition: at the top concentration", "summary_of_the_method": "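Luciferase-expressing parasites in RBCs, 2% Hct / 0.1% parasitemia final; RPMI 1640 + 0.5% Albumax; 37 C, 5% CO2, one generation; luminescence read-out, lower signal = inhibition.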", "values": [{"smiles": "COc1cc(C(=O)NCC2CCCO2)ccc1OCc1ccc(Cl)cc1", "note": "(stereo unspecified)", "Potency": "inconclusive [inhibitor, single point]"}, {"smiles": "CC(=O)Nc1scc(C)c1-c1nc2ccccc2s1", "Potency": "inconclusive [inhibitor, single point]"}, {"smiles": "CCOc1ccc(S(=O)(=O)n2ccc(C)n2)cc1", "activity change, negative = inhibition": "inactive: -6.32%"}, {"smiles": "COc1ccccc1CNC(=O)CCc1ccccc1", "activity change, negative = inhibition": "inactive: -8.14%"}, {"smiles": "CC1(O)N(CCC(=O)Nc2cccc(F)c2)C(=O)OC12CCCCC2", "note": "(stereo unspecified)", "Potency": "inconclusive [inhibitor, full curve]"}, {"smiles": "COc1ccc(C(=O)NCc2nnc(SCCOc3ccccc3)n2C)cc1", "Potency": "inconclusive [inhibitor, partial curve]"}, {"smiles": "CCC(c1nnc(SCC(=O)Nc2c(F)cccc2F)n1Cc1ccccc1)N(C)C", "note": "(stereo unspecified)", "Potency": "inconclusive [inhibitor, partial curve]"}, {"smiles": "CC(C)(C)N1CC(c2nc3ccccc3n2Cc2ccc(Cl)cc2)CC1=O", "note": "(stereo unspecified)", "Potency": "inconclusive [inhibitor, partial curve, poor fit]"}, {"smiles": "O=C(CN1c2ccccc2Sc2ccccc21)NNC(=S)Nc1ccc(Cl)cc1", "activity change, negative = inhibition": "inactive: 4.1%"}, {"smiles": "COc1ccc(/C=N/NC(=O)CCc2n[nH]c(=O)[nH]c2=O)cc1OC", "Potency": "inconclusive [inhibitor, single point]"}, {"smiles": "COc1cc2nc(N3CCN(C(=O)OCc4ccccc4)[C@H](C(=O)NC(C)(C)C)C3)nc(N)c2cc1OC", "Potency": "active: 2.94 µM"}, {"smiles": "N#C/C(=C\\c1ccc(OC(=O)c2cccs2)cc1)c1nc2ccccc2[nH]1", "activity change, negative = inhibition": "inactive: 35.4%"}, {"smiles": "CCn1c(SCc2ccc(Cl)cc2Cl)nc2nc3c(cc2c1=O)CCCC3", "Potency": "inconclusive [inhibitor, partial curve, poor fit]"}, {"smiles": "COc1ccc(COC(=O)c2ccc(Cl)c(S(=O)(=O)N3CC(C)OC(C)C3)c2)cc1", "note": "(stereo unspecified)", "Potency": "active: 4.65 µM"}, {"smiles": "CCOC(=O)C(=Cc1cn(C)c2ccc(S(=O)(=O)N(C)C)cc12)C(=O)OCC", "Potency": "inconclusive [inhibitor, single point]"}, {"smiles": "O=C1NC(=Nc2ccccc2)c2c1cccc2[N+](=O)[O-]", "Potency": "inconclusive [inhibitor, single point]"}, {"smiles": "CCn1nc(C(=O)N2CCc3ccccc32)c2ccccc2c1=O", "Potency": "inconclusive [inhibitor, single point]"}, {"smiles": "COc1ccc(C(=O)N2CCN(c3ccc(N4CCOCC4)nn3)CC2)cc1OC", "Potency": "inconclusive [inhibitor, partial curve, poor fit]"}, {"smiles": "CC1(C)Oc2ccc3ccc(=O)oc3c2[C@@H](O)[C@H]1O", "activity change, negative = inhibition": "inactive: 29.3%"}, {"smiles": "COc1ccc2nc(C)cc(SCC(=O)N/N=C/c3ccc(O)cc3O)c2c1", "Potency": "inconclusive [inhibitor, single point]"}, {"smiles": "O=C(C[n+]1cc(-c2ccc(Cl)cc2)n2c1CCCCC2)c1ccccc1", "Potency": "inconclusive [inhibitor, full curve]"}, {"smiles": "CC(C)(C)C(=O)Nc1cccc(OC(F)(F)C(F)Cl)c1", "note": "(stereo unspecified)", "activity change, negative = inhibition": "inactive: -2.3%"}, {"smiles": "O=S(=O)(c1ccc(Cl)cc1)N1CCN=C1SCc1cccnc1", "Potency": "inconclusive [inhibitor, full curve, poor fit]"}, {"smiles": "CC(C)(CN)CC(=O)O", "Potency": "inconclusive [inhibitor, single point]"}, {"smiles": "COc1ccc(C(C)(C)C)cc1NC(=O)c1[nH]c(C)c(C(C)=O)c1C", "Potency": "inconclusive [inhibitor, single point]"}, {"smiles": "COc1cccc(NC(=S)N(CCN(C)C)C(C)c2ccncc2)c1", "note": "(stereo unspecified)", "activity change, negative = inhibition": "inactive: -18.5%"}, {"smiles": "Cc1ccc(O)c(C(=O)c2cc(C(=O)NCCC(C)C)c(=O)n(CCC(C)C)c2)c1", "Potency": "inconclusive [inhibitor, full curve]"}, {"smiles": "Cc1cc2ccccc2nc1SCC(=O)N1c2ccccc2CC1C", "note": "(stereo unspecified)", "Potency": "inconclusive [inhibitor, single point]"}, {"smiles": "CC(C(=O)N(C)Cc1ccccc1)N1CCN(C/C=C/c2ccccc2)CC1", "note": "(stereo unspecified)", "Potency": "inconclusive [inhibitor, single point]"}, {"smiles": "COc1cc2c(cc1OC)CN(C(=O)c1cc(S(=O)(=O)N3CCOCC3)ccc1C)CC2", "Potency": "inconclusive [inhibitor, single point]"}, {"smiles": "O=C(NCc1cccnc1)c1cc2nc(-c3ccc4c(c3)OCO4)cc(C(F)(F)F)n2n1", "Potency": "inconclusive [inhibitor, partial curve, poor fit]"}, {"smiles": "CC(Sc1nnc(Cc2cccs2)n1C1CCCCC1)C(=O)N1CCc2ccccc21", "note": "(stereo unspecified)", "Potency": "inconclusive [inhibitor, partial curve]"}, {"smiles": "Nn1c(COc2cccc(Br)c2)nnc1SCC(=O)NCC1CCCO1", "note": "(stereo unspecified)", "Potency": "inconclusive [inhibitor, partial curve]"}, {"smiles": "O=C(Nc1cc(=O)[nH]c2ncnn12)c1ccco1", "Potency": "inconclusive [inhibitor, partial curve, poor fit]"}, {"smiles": "Cn1nc(C(F)(F)F)c(-c2cccc(C(F)(F)F)c2)c1NC(=O)CSCC(=O)O", "Potency": "inconclusive [inhibitor, single point]"}, {"smiles": "COc1ccc(-c2cc(C(=O)N3CCN(c4ncccn4)CC3)c3ccccc3n2)cc1OC", "Potency": "inconclusive [inhibitor, single point]"}, {"smiles": "COc1ccc2c(c1)C(SCC(=O)NCCc1ccc(Cl)cc1)CC(C)(C)O2", "note": "(stereo unspecified)", "Potency": "inconclusive [inhibitor, partial curve, poor fit]"}, {"smiles": "O=c1c2cn[nH]c2nc(SCc2ccccc2F)n1-c1ccc(Br)cc1", "Potency": "inconclusive [inhibitor, single point]"}, {"smiles": "CN(C)c1nc(N2CCOCC2)nc(N(c2ccccc2)c2ccccc2)n1", "Potency": "inconclusive [inhibitor, partial curve]"}, {"smiles": "COC(=O)c1c(NC(=O)CSc2ncnc3c2cnn3-c2ccccc2Cl)sc2c1CCCC2", "Potency": "inconclusive [inhibitor, single point]"}, {"smiles": "CN1CCN(c2ccc(S(=O)(=O)N3CCCCC3)cc2NC(=O)/C=C/c2ccc(OC(F)F)cc2)CC1", "Potency": "active: 9.28 µM"}]}]}
